Laboratory results as given in a collection of fitness landscapes (doi:10.1016/j.celrep.2020.107928).
Whole data set: some 81,000 sequences, median “one-hybrid fitness for binding NBS DNA” near -0.1, cut for the highest 2% near 0.36. The list shows a part of the results.

B1: Caulobacter ParB omega fusion; a variant is named by its letters at X, in order, B8GW30 (parent)
chain: MESVVVGEPGMSEGRRGLGRGLSALLGEVDAAPAQAPGEQLGGSREAPIEILQRNPDQPRRTFREEDLEDLSNSIREKGVLQPILVRPSPDTAGEYQIVAGERAWRAAQRAGLKTVPIMVRELDDLAVLEIGIIENVQRADLNVLEEALSYKVLMEKFERTQENIAQTIGKSXSHVANXMRLLXLPDEVQSYLVSGELTAXHARAIAAAADPVALAKQIIEGGLSVRETEALARKAPNLSAGKSKGGRPPRVKDTDTQALESDLSSVLGLDVSIDHRGSTGTLTITYATLEQLDDLCNRLTRGI

Variants of: B1
Experiment: one-hybrid fitness for binding NBS DNA (the Noc-binding site; scaled: cognate 1, non-cognate 0); higher = stronger binding
Conditions: with NBS DNA site
Summary of the method: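 Selection: bacterial one-hybrid in E. coli USO, HIS3 reporter with the site 19 bp from the promoter, 48 hours at 37°C on M9-minus-histidine plus 0.1 mM IPTG and 5 mM 3-AT. Libraries were Caulobacter ParB with four randomised specificity codons, sequenced on Illumina before and after selection. Fitness is the rescaled log change in variant-to-wild-type read ratio, anchored to the cognate and non-cognate sites.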

one-hybrid fitness for binding NBS DNA, 0.238:
RLFT

one-hybrid fitness for binding NBS DNA, 0.226:
IMRR

one-hybrid fitness for binding NBS DNA, 0.425:
KQKR

one-hybrid fitness for binding NBS DNA, 0.57:
RTHT

one-hybrid fitness for binding NBS DNA, 0.209:
SQWD

one-hybrid fitness for binding NBS DNA, 0.415:
QKRQ

one-hybrid fitness for binding NBS DNA, 0.365:
RRLH

one-hybrid fitness for binding NBS DNA, 0.75:
RRTR

one-hybrid fitness for binding NBS DNA, 0.307:
VRGR

one-hybrid fitness for binding NBS DNA, ≤ 0.2:
SCHV
TPMS
HSAT
GNAD
SGLS
WSAM
PSTT
CSYG
PTWM
MIHC
NRTY
TQAW
HMWR
KSFG
AFLI
CQTM
AFFR
RRDP
KGNG
ELKG
PKLS
LTEE
EAQT
PDES
WYTL
HEKR
QQQV
SKNK
QPYV
YCND
PLAT
DCGR
KDMD
GGPL
SHYT
NKHL
MKRC
DDNM
TKWD
PQYT
KVNT
VQIV
SDGE
LVKT
DNNW
LDCV
YHVG
KGNT
TKWA
VSSD
LWSV
QPPC
YPSW
DMKG
SPSS
MCIR
SANK
PRQV
KKFD
NSVS
CQMS
KETM
LYQS
ILAI
GIPT
RQIF
VPGG
EMTR
ATTT
QFKV
TAML
ENQG
SDNC
FKMG
MHTL
VMPE
ADRH
DEQS
MALC
MVNR
RSHM
NGLE
WVER
WPAG
MKKL
DPAC
TNER
HALS
WCTM
TSTI
SRLN
PSTF
RQIH
LEIR
LQNC
EHVS
LYYG
SLPL
RYCF
IRSV
IGAG
PKMC
CFDG
PESL
RWEW
MRHT
TNHP
PCLW
TMTI
WMNG
NNTE
YPAS
HNIG
LPSD
DKHG
FLKS
SLTM
KNCI
PDHD
CNRR
HTVE
TVQT
HISV
DFSR
REDT
CRRN
RTTC
CSCR
TNKF
TPHW
RVDY
TFGT
DHGV
YTFY
IDSN
VLSM
LYPI
PNYL
KHTM
WMLV
ISER
TRSH
YGRT
SFPF
SMFS
ACMS
ENNE
KIYL
SSAH
DGWA
GAEG
GQPG
FLGT
PMYG
AVDV
VFPS
PPLY
RSRW
HLKT
PQLR
DCYR
LPEM
QKVI
VYDG
DIAA
AEVF
NEYT
HWTM
TWLG
TTNY
MNQS
QHCF
PENN
NHQS
RPQY
TRPT
LHSI
QYSD
QTPH
TNHN
AYID
KGVS
VLFD
WEHP
PRCG
RLLF
